The source of these data is PubChem BioAssay AID1347073 (National Center for Advancing Translational Sciences (NCATS), 2019).

Hit rate of the full screen: of about 45,000 compounds, about 200 (0.44%) were called active. Another 7% or so got no clear call; they are omitted. Calls come from the whole dose curve; as a rule, active = well fitted activation curve with a large enough effect; inconclusive = small, poorly fitted or top-dose-only effect; inactive = no such curve, though single readings can be large or run the other way. Some of the results follow.
Potency is the fitted concentration of half-maximal effect.

The experiment can be described thus: qHTS of TDP-43 Inhibitors: NCGC Sytravon Library Screen. For growth rescue (activation): 0% is about no effect. Note: nearly all actives have a fitted effect of over 55% in size. The note with it: yeast TDP-43 toxicity rescue, BacTiter-Glo growth, 24 h; series mostly up to 46.1 µM; growth rescue (activation): at the top concentration. Put shortly:
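TDP-43-expressing yeast, pregrown in raffinose, seeded at OD600 0.02 in galactose medium with compound for 24 hr at 30 deg C. Growth read by BacTiter-Glo luminescence, so rescue of toxicity appears as activation.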
Turning to `CN(Cc1ccccc1)c1ccc(C(=O)O)cc1[N+](=O)[O-]`, the Potency is active: 15.8 µM.

For the compound `COc1ccccc1NC(=O)Nc1ccc(N2CCOCC2)cc1`, the “growth rescue (activation)” value is inactive: 11.8%.

Regarding `Cc1ccc(NC(=O)c2cnccn2)cc1S(=O)(=O)N(C)C`, the “growth rescue (activation)” value was inactive: 7.13%.

As for `Cc1c(N=NC2=C(O)CC(C)(C)CC2=O)c(=O)n(-c2ccccc2)n1C`, the “growth rescue (activation)” value is inactive: -18.3%.

Turning to `O=C(Nc1ccc(Br)cn1)c1cccc(S(=O)(=O)N2CCCC2)c1`, the “growth rescue (activation)” value is inactive: -1.01%.

As for `Cn1c2c(c(=O)n(C)c1=O)CN(Cc1ccco1)CN2`, the “growth rescue (activation)” value was inactive: 9.15%.

Regarding `CC(C)(C)OC(=O)N1CCN(C(=O)c2cccnc2Cl)CC1`, the “growth rescue (activation)” value is inactive: 8.01%.

As for `Cc1ccc(-c2nnc(SCC(N)=O)n2C)cc1`, the “growth rescue (activation)” value was inactive: -5.95%.

In the case of `CCC(=O)Oc1ccc2c(C)cc(=O)oc2c1C(=O)CC`, the “growth rescue (activation)” value was inactive: -3.57%.

In the case of `CCc1nc2ccc(C(=O)NCCC(C)C)cn2c1N(CC)CCOC`, the “growth rescue (activation)” value is inactive: -0.438%.

As to `CN(C)S(=O)(=O)c1cccc(NC(=O)CN2C(=O)NC(Cc3c[nH]c4ccccc34)C2=O)c1` (centres undefined), the “growth rescue (activation)” value was inactive: -27.7%.

As to `O=C(c1ccc(-c2ccccc2)cc1)N1CCN(c2ccccn2)CC1`, the “growth rescue (activation)” value was inactive: 9.96%.

As for `COc1ccc(C(O)(CCC(C)C)C(CN2CCOCC2)c2ccc(Cl)cc2)cc1` (centres undefined), the “growth rescue (activation)” value is inactive: -0.207%.

Regarding `CCCN(C(=O)c1cc2c(s1)-c1ccccc1SC2)c1ccccc1F`, the “growth rescue (activation)” value was inactive: 16.9%.

As to `CC(C)C(=O)N1CCCC1(C)C(=O)Nc1cccc(Oc2ccccc2)c1` (centres undefined), the “growth rescue (activation)” value was inactive: 9.96%.

Regarding `CC(C)CCNC(=O)C(=O)NCCC1=CCCCC1`, the “growth rescue (activation)” value is inactive: 0.941%.

Regarding `CCOC(=O)Cc1cc(=O)n2[nH]cc(-c3ccc(Cl)cc3)c2n1`, the “growth rescue (activation)” value is inactive: 2.78%.

Regarding `Cc1ccc(S(=O)(=O)c2cc3c(=O)n4cccc(C)c4nc3n(C3CCCCC3)c2=N)cc1`, the “growth rescue (activation)” value was inactive: -6.67%.

For `CCOc1ccc(OCC(=O)OCC(=O)Nc2ccccc2C#N)cc1`, the “growth rescue (activation)” value is inactive: 12.1%.

Consider `Cc1nnc(NC(=O)c2nc(S(=O)(=O)Cc3ccccc3)ncc2Cl)s1`, for which the “growth rescue (activation)” value is inactive: 18.2%.

With `O=C(NCCc1ccccc1)C(=O)NN=C1CCCC1`, the “growth rescue (activation)” value is inactive: 11.4%.

As to `N#Cc1cc(C#N)c(SCC(=O)NCC2CCCO2)nc1N` (centres undefined), the “growth rescue (activation)” value is inactive: 17.2%.

With `Clc1ccc(C2CSc3c4ncnc-4ncn32)cc1` (centres undefined), the “growth rescue (activation)” value was inactive: 0.619%.

With `COc1ccccc1N1CCN(CC(=O)Nc2c(C)n[nH]c2C)CC1`, the “growth rescue (activation)” value is inactive: 11%.

Take `CCC(C)NC(=O)c1ccc2c(c1)N(Cc1ccccc1)C(=O)c1ccccc1S2(=O)=O` (centres undefined): the “growth rescue (activation)” value was inactive: 15.2%.

As to `COc1cc(/C=N/Nc2ccc(Cl)cc2)ccc1OC(=O)c1cccs1`, the “growth rescue (activation)” value was inactive: 17.8%.

As for `O=C(O)c1ccc2c(c1)C(=O)/C(=C/c1ccccc1)C2=O`, the “growth rescue (activation)” value is inactive: 14.1%.

As for `COc1ccc(-c2cc(NC(C)=O)c3ncc(-c4ccc(F)cc4)n3c2)cc1OC`, the “growth rescue (activation)” value is inactive: 1.37%.

As for `COc1ccc(/C=C(\NC(=O)c2ccc(Cl)cc2)C(=O)NCCCN2CCOCC2)cc1OC`, the “growth rescue (activation)” value is inactive: -6.84%.

For the compound `Cc1ccc(S(=O)(=O)/N=C(\c2ccccc2)N(C)S(=O)(=O)c2ccc(C)cc2)cc1`, the “growth rescue (activation)” value was inactive: 13.7%.

Regarding `Cc1ccc(S(=O)(=O)c2nc(-c3ccccc3Cl)oc2N2CCN(C)CC2)cc1`, the “growth rescue (activation)” value was inactive: 14%.

For `Cc1cccnc1NC(=O)CCNS(=O)(=O)c1ccc2c(c1)c(=O)n(C)c(=O)n2C`, the “growth rescue (activation)” value was inactive: -3.29%.

Consider `O=C(CSc1nc2ccccc2c(=O)[nH]1)N1CCN(c2ccccc2F)CC1`, for which the “growth rescue (activation)” value is inactive: -3.19%.

Take `CN(C(=O)CCNC(=O)Cn1cnc2ccccc2c1=O)c1ccccc1F`: the “growth rescue (activation)” value was inactive: -0.115%.

For the compound `O=C(Nc1nnc(-c2ccccc2F)s1)Nc1ccccc1F`, the “growth rescue (activation)” value was inactive: -6.36%.

Consider `O=C(OC(C(=O)Nc1ccc(Cl)c(C(F)(F)F)c1)c1ccccc1)C1=COCCO1` (centres undefined), for which the “growth rescue (activation)” value was inactive: 13.4%.

As to `Cc1cc(N2CCOCC2)nc2ccc(NC(=S)N3CCCCC3C)cc12` (centres undefined), the “growth rescue (activation)” value is inactive: 3.27%.

Regarding `COc1ccc(N(CC(=O)NCc2ccncc2)S(=O)(=O)c2ccccc2[N+](=O)[O-])c(OC)c1`, the “growth rescue (activation)” value is inactive: 8.9%.

Consider `N=C1CCCN1CC(=O)c1ccc(Br)cc1`, for which the “growth rescue (activation)” value is inactive: 10.5%.

Take `COc1ccc(CN(Cc2ccccn2)S(=O)(=O)c2ccc(-n3cnnn3)cc2)cc1`: the “growth rescue (activation)” value is inactive: 32.4%.

With `CCCCN(C)CCNC(=O)c1cn(C)c(=O)c2c1c1ccccc1n2C`, the “growth rescue (activation)” value was inactive: -7.75%.

For `CCOCCOC(=O)C(C)Sc1n[nH]c(=O)[nH]c1=O` (centres undefined), the “growth rescue (activation)” value was inactive: -33.8%.

For the compound `Cc1cccc(NCc2ccc(N(C)C)cc2)n1`, the “growth rescue (activation)” value was inactive: -2.96%.

Turning to `O=C(CCCN1C(=O)/C(=C/c2cccs2)SC1=S)Nc1cccc(O)c1`, the “growth rescue (activation)” value was inactive: 0.938%.

`Cc1ccc(-n2c(C)cc(C(=O)COC(=O)c3ccc[nH]c3=O)c2C)cc1C`: the “growth rescue (activation)” value is inactive: -74.6%.

For the compound `COC(=O)c1ccc(N2NC(=O)/C(=C/c3cc(OC)c(O)c(OC)c3)C2=O)cc1`, the “growth rescue (activation)” value was inactive: -16.6%.

Regarding `CCn1c(CC(=O)Nc2ccc(Cl)c(Cl)c2)nnc1SCc1ccc(Cl)cc1`, the “growth rescue (activation)” value is inactive: 2.4%.

`COc1cccc(/C=C/C(=O)Nc2ccc(N3CCOCC3)cc2)c1OC`: the “growth rescue (activation)” value is inactive: 5.25%.

Take `CN(C)S(=O)(=O)N1CCC(Oc2cccc(C(=O)NCCC3=CCCCC3)c2)CC1`: the “growth rescue (activation)” value was inactive: -10.2%.

Consider `CCNC(=S)Nc1ccc2ncoc2c1`, for which the “growth rescue (activation)” value is inactive: 4.98%.

With `N=c1c(C(=O)NCCN2CCOCC2)cc2c(=O)n3ccccc3nc2n1CCc1ccccc1`, the “growth rescue (activation)” value was inactive: 1.76%.

As for `CCCCc1ncc(CN2CCC(CC3CCCCO3)(C(=O)OCC)CC2)[nH]1` (centres undefined), the “growth rescue (activation)” value is inactive: 9.07%.

In the case of `NNc1nnc2c3cc(F)ccc3n(CCc3ccccc3)c2n1`, the “growth rescue (activation)” value was inactive: 32.6%.

Take `COc1cc(CN2CCC(C(=O)NC(c3ccc(F)cc3)c3ncccc3C)CC2)cc(OC)c1` (centres undefined): the “growth rescue (activation)” value is inactive: 4.32%.

In the case of `C1CCN(c2c3c(nc4nnnn24)CCCC3)CC1`, the “growth rescue (activation)” value is inactive: -6.57%.

Turning to `CC(C)(C)NC(=O)c1ccc(Cn2cc(C(F)(F)F)ccc2=O)cc1`, the “growth rescue (activation)” value was inactive: -6.66%.

As to `CCOC(=O)CN(C(=O)COc1ccc2c(C)cc(=O)oc2c1)c1ccc(OCC)cc1`, the “growth rescue (activation)” value was inactive: 1.26%.

Consider `O=S(=O)(NCCn1cccc1)c1ccc2ccccc2c1`, for which the “growth rescue (activation)” value was inactive: 14.6%.

Turning to `Cc1cccc(OC(C)C(=O)Nc2ccccc2C(=O)N2CCCCC2)c1` (centres undefined), the “growth rescue (activation)” value was inactive: -2.29%.

In the case of `CCOc1ccc(S(=O)(=O)N=C(c2ccccc2)N2CCOCC2)cc1`, the “growth rescue (activation)” value was inactive: -0.534%.

For `Cc1ccc(NNC(=S)Nc2ccc(C(C)C)cc2)c(C)c1`, the “growth rescue (activation)” value is inactive: 10%.

With `O=C(Cc1ccccc1)NN1CCCCC1`, the “growth rescue (activation)” value is inactive: 12.5%.

Turning to `Cc1cc(N2CCCC2)nc2ccccc12`, the “growth rescue (activation)” value is inactive: -0.538%.

Turning to `OCC1(Cc2cccc(F)c2)CCN(Cc2ccc3cccc(F)c3n2)CC1`, the “growth rescue (activation)” value is inactive: -0.705%.

For `O=c1c2cc(Cl)ccc2oc2nc3n(c(=O)c12)CCCS3`, the “growth rescue (activation)” value was inactive: -23%.

In the case of `Cc1cccc(Cn2nc(C)cc2NC(=O)Cn2cc([N+](=O)[O-])cn2)c1`, the “growth rescue (activation)” value is inactive: 17.5%.

`Cc1nc(C(C)NC(=O)CCc2nnc(Cc3c[nH]c4ccccc34)o2)cs1` (centres undefined): the “growth rescue (activation)” value is inactive: 12.5%.

For `CCC(C)N1CCNCC1` (centres undefined), the “growth rescue (activation)” value was inactive: -15.7%.

As for `CCc1ccccc1NC(=O)CN(C)C(=O)Cn1cc(C(F)(F)F)cc(Cl)c1=O`, the “growth rescue (activation)” value is inactive: 0.44%.
